# The list shows a part of the results.
# B1: MGL1 (Mus musculus), P49300 (protein)
# chain: MIYENLQNSRIEEKTQEPGKAPSQSFLWRILSWTHLLLFSLGLSLLLLVVVSVIGSQNSQLRRDLGTLRATLDNTTSKIKAEFQSLDSRADSFEKGISSLKVDVEDHRQELQAGRDLSQKVTSLESTVEKREQALKTDLSDLTDHVQQLRKDLKALTCQLANLKNNGSEVACCPLHWTEHEGSCYWFSESEKSWPEADKYCRLENSHLVVVNSLEEQNFLQNRLANVVSWIGLTDQNGPWRWVDGTDFEKGFKNWAPLQPDNWFGHGLGGGEDCAHITTGGPWNDDVCQRTFRWICEMKLAKES
# Legend:
# Experiment in all cases: glycan array binding signal (z-score within array); higher = stronger binding
# Settings in all cases: glycan notation: IUPAC condensed, linker removed
# [1] = target: Neu5Ac(a2-6)GalNAc(b1-4)GlcNAc6S
# Summary of the method: (§1)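 The Consortium for Functional Glycomics database supplied 3228 glycan arrays, of which those lacking an available protein sequence were dropped. The binding signal, a within-array Z-score, was averaged across arrays of the same protein sequence and across linkers. Negative scores can be read as non-binding.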
# [2] = target: Neu5Ac(a2-6)GlcNAc(b1-4)GlcNAc
# Summary of the method: as §1
# [3] = target: Neu5Ac(a2-6)GlcNAc(b1-4)GlcNAc(b1-4)GlcNAc
# Summary of the method: as §1
# Neu5Ac(a2-8)Neu5Ac = target: Neu5Ac(a2-8)Neu5Ac
# Summary of the method: as §1
# [4] = target: Neu5Ac(a2-8)Neu5Ac(a2-3)Gal(b1-3)GalNAc(b1-4)[Neu5Ac(a2-3)]Gal(b1-4)Glc
# Summary of the method: as §1
# [5] = target: Neu5Ac(a2-8)Neu5Ac(a2-3)Gal(b1-3)GalNAc(b1-4)[Neu5Ac(a2-8)Neu5Ac(a2-3)]Gal(b1-4)Glc
# Summary of the method: as §1
# [6] = target: Neu5Ac(a2-8)Neu5Ac(a2-3)Gal(b1-4)Glc
# Summary of the method: as §1
# [7] = target: Neu5Ac(a2-8)Neu5Ac(a2-3)Gal(b1-4)GlcNAc
# Summary of the method: as §1
# [8] = target: Neu5Ac(a2-8)Neu5Ac(a2-3)[Gal(b1-3)GalNAc(b1-4)]Gal(b1-4)Glc
# Summary of the method: as §1
# [9] = target: Neu5Ac(a2-8)Neu5Ac(a2-3)[GalNAc(b1-4)]Gal(b1-4)Glc
# Summary of the method: as §1
# [10] = target: Neu5Ac(a2-8)Neu5Ac(a2-8)Neu5Ac
# Summary of the method: as §1
# [11] = target: Neu5Ac(a2-8)Neu5Ac(a2-8)Neu5Ac(a2-3)Gal(b1-4)Glc
# Summary of the method: as §1
# [12] = target: Neu5Ac(a2-8)Neu5Ac(a2-8)Neu5Ac(a2-3)[Gal(b1-3)GalNAc(b1-4)]Gal(b1-4)Glc
# Summary of the method: as §1
# [13] = target: Neu5Ac(a2-8)Neu5Ac(a2-8)Neu5Ac(a2-3)[GalNAc(b1-4)]Gal(b1-4)Glc
# Summary of the method: as §1
# [14] = target: Neu5Ac(a2-8)Neu5Ac(a2-8)Neu5Ac(a2-8)Neu5Ac(a2-3)[GalNAc(b1-4)]Gal(b1-4)Glc
# Summary of the method: as §1
# [15] = target: Neu5Ac(a2-8)Neu5Gc(a2-3)Gal(b1-4)GlcNAc
# Summary of the method: as §1
# [16] = target: Neu5Ac(b2-6)Gal(b1-4)GlcNAc
# Summary of the method: as §1
# Neu5Ac(b2-6)GalNAc = target: Neu5Ac(b2-6)GalNAc
# Summary of the method: as §1
# [17] = target: Neu5Ac9Ac(a2-3)Gal(b1-3)GlcNAc
# Summary of the method: as §1
# [18] = target: Neu5Ac9Ac(a2-3)Gal(b1-4)GlcNAc
# Summary of the method: as §1
# [19] = target: Neu5Ac9Ac(a2-6)Gal(b1-4)GlcNAc
# Summary of the method: as §1
# [20] = target: Neu5Gc(a2-3)Gal(b1-3)GlcNAc
# Summary of the method: as §1
# [21] = target: Neu5Gc(a2-3)Gal(b1-3)[Fuc(a1-4)]GlcNAc
# Summary of the method: as §1
# Neu5Gc(a2-3)Gal(b1-4)Glc = target: Neu5Gc(a2-3)Gal(b1-4)Glc
# Summary of the method: as §1
# [22] = target: Neu5Gc(a2-3)Gal(b1-4)GlcNAc
# Summary of the method: as §1
# [23] = target: Neu5Gc(a2-3)Gal(b1-4)GlcNAc(b1-3)Gal(b1-4)GlcNAc(b1-2)Man(a1-3)[Neu5Gc(a2-3)Gal(b1-4)GlcNAc(b1-3)Gal(b1-4)GlcNAc(b1-2)Man(a1-6)]Man(b1-4)GlcNAc(b1-4)GlcNAc
# Summary of the method: as §1
# [24] = target: Neu5Gc(a2-3)Gal(b1-4)[Fuc(a1-3)]GlcNAc
# Summary of the method: as §1
# [25] = target: Neu5Gc(a2-3)Gal(b1-4)[Fuc(a1-4)]GlcNAc
# Summary of the method: as §1
# [26] = target: Neu5Gc(a2-6)Gal(b1-4)GlcNAc
# Summary of the method: as §1
# Neu5Gc(a2-6)GalNAc = target: Neu5Gc(a2-6)GalNAc
# Summary of the method: as §1
# [27] = target: Neu5Gc(a2-8)Neu5Ac(a2-3)Gal(b1-4)GlcNAc
# Summary of the method: as §1
# [28] = target: Neu5Gc(a2-8)Neu5Gc(a2-3)Gal(b1-4)GlcNAc
# Summary of the method: as §1
# [29] = target: Neu5Gc(a2-8)Neu5Gc(a2-3)Gal(b1-4)GlcNAc(b1-3)Gal(b1-4)GlcNAc
# Summary of the method: as §1
# [30] = target: Neu5Gc(a2-8)Neu5Gc(a2-6)Gal(b1-4)GlcNAc
# Summary of the method: as §1
# [31] = target: Neu5Gc(b2-6)Gal(b1-4)GlcNAc
# Summary of the method: as §1
binder,measurement,setting,value
B1,glycan array binding signal (z-score),[1],0.527
same,glycan array binding signal (z-score),[2],-0.401
same,glycan array binding signal (z-score),[3],-0.198
same,glycan array binding signal (z-score),Neu5Ac(a2-8)Neu5Ac,-0.151
same,glycan array binding signal (z-score),[4],-0.125
same,glycan array binding signal (z-score),[5],0.861
same,glycan array binding signal (z-score),[6],-0.098
same,glycan array binding signal (z-score),[7],-0.551
same,glycan array binding signal (z-score),[8],-0.034
same,glycan array binding signal (z-score),[9],-0.557
same,glycan array binding signal (z-score),[10],-0.349
same,glycan array binding signal (z-score),[11],-0.021
same,glycan array binding signal (z-score),[12],-0.242
same,glycan array binding signal (z-score),[13],-0.398
same,glycan array binding signal (z-score),[14],-0.116
same,glycan array binding signal (z-score),[15],-0.429
same,glycan array binding signal (z-score),[16],-0.167
same,glycan array binding signal (z-score),Neu5Ac(b2-6)GalNAc,-0.275
same,glycan array binding signal (z-score),[17],0.339
same,glycan array binding signal (z-score),[18],-0.495
same,glycan array binding signal (z-score),[19],-0.429
same,glycan array binding signal (z-score),[20],-0.578
same,glycan array binding signal (z-score),[21],-0.087
same,glycan array binding signal (z-score),Neu5Gc(a2-3)Gal(b1-4)Glc,0.019
same,glycan array binding signal (z-score),[22],-0.351
same,glycan array binding signal (z-score),[23],-0.823
same,glycan array binding signal (z-score),[24],-0.246
same,glycan array binding signal (z-score),[25],-0.153
same,glycan array binding signal (z-score),[26],-0.358
same,glycan array binding signal (z-score),Neu5Gc(a2-6)GalNAc,-0.314
same,glycan array binding signal (z-score),[27],0.201
same,glycan array binding signal (z-score),[28],-0.431
same,glycan array binding signal (z-score),[29],-0.804
same,glycan array binding signal (z-score),[30],0.061
same,glycan array binding signal (z-score),[31],-0.207

# Source: the supplement of paper PMC8728848
